In ChEMBL document CHEMBL5606460, “ASAP - DENV-2 NS2B-NS3 protease fluorescence single point” (2024):
Among all 2,000 compounds or so, about 110 (5.5%) showed an effect of 50% or more. The list shows a part of the results.

Biological target: Genome polyprotein (dengue virus type 2) (UniProt P29990)
[1] = Thailand/16681/1984, Concentration 25.0 uM, Number of replicates 1.0

## Cc1cc(CO)c2cccc(Cc3ccccc3C(=O)N3CC[C@@H](CO)C3)c2n1
Thailand/16681/1984, Concentration 49.95 uM, Number of replicates 2.0, Standard deviation 0.1537915321395842 %
  inhibition: -0.863%
Thailand/16681/1984, Concentration 99.9 uM, Number of replicates 2.0, Standard deviation 0.5490500301245094 %
  inhibition: 3.93%

## Cc1cc(CO)c2cccc(C[C@H](NC(=O)c3cnn(Cc4c(C)noc4C)c3)C(=O)O)c2n1
Thailand/16681/1984, Concentration 49.95 uM, Number of replicates 2.0, Standard deviation 1.1924398800818634 %
  inhibition: 6.27%
Thailand/16681/1984, Concentration 99.9 uM, Number of replicates 2.0, Standard deviation 0.4114422556103808 %
  inhibition: 14.3%

## CC(=O)N[C@@H](Cc1cnc[nH]1)C(=O)Nc1cccc2cccnc12
Thailand/16681/1984, Concentration 49.95 uM, Number of replicates 2.0, Standard deviation 0.10364955290671912 %
  inhibition: -6.45%
Thailand/16681/1984, Concentration 99.9 uM, Number of replicates 2.0, Standard deviation 0.355368739652335 %
  inhibition: 29.6%

## C#CCn1ccnc(N2CC[C@H](CO)C2)c1=O
Thailand/16681/1984, Concentration 49.5 uM, Number of replicates 2.0, Standard deviation 2.0763887684739366 %
  inhibition: 7.96%
Thailand/16681/1984, Concentration 99.01 uM, Number of replicates 2.0, Standard deviation 1.566880911622348 %
  inhibition: 17.7%
Thailand/16681/1984, Concentration 198.0 uM, Number of replicates 2.0, Standard deviation 2.295023353488077 %
  inhibition: 33.4%

## O=Cc1ccc(N2CCC(C(=O)Nc3ccncc3I)CC2)cc1
[1]
  inhibition: 12.8%

## O=C(Nc1ccc(Cl)c2cccnc12)c1ccncc1
Thailand/16681/1984, Concentration 49.95 uM, Number of replicates 2.0, Standard deviation 4.407566362964235 %
  inhibition: -8.51%

## CC(=O)Nc1ccc(C(=O)N[C@@H](Cc2cccc3c(CO)cc(C)nc23)C(=O)O)cn1
Thailand/16681/1984, Concentration 49.95 uM, Number of replicates 2.0, Standard deviation 1.0579951422547804 %
  inhibition: 6.92%
Thailand/16681/1984, Concentration 99.9 uM, Number of replicates 2.0, Standard deviation 0.5756140086291676 %
  inhibition: 18.2%

## O=Cc1ccc(N2CCC(C(=O)N3CCN(CC(F)(F)F)CC3)CC2)cc1
[1]
  inhibition: 13.1%

## O=Cc1ccc(N2CCC(C(=O)NCc3ccc(S(F)(F)(F)(F)F)cc3)CC2)cc1
[1]
  inhibition: 7.87%

## O=C1[C@@H]2CCCN2[C@H](c2ccc([N+](=O)[O-])cc2)N1c1ccc([N+](=O)[O-])cc1
Thailand/16681/1984, Concentration 49.5 uM, Number of replicates 2.0, Standard deviation 0.9169689211516303 %
  inhibition: 1.38%
Thailand/16681/1984, Concentration 99.01 uM, Number of replicates 2.0, Standard deviation 0.1237768647067936 %
  inhibition: 5.28%
Thailand/16681/1984, Concentration 198.0 uM, Number of replicates 2.0, Standard deviation 0.26470581088358064 %
  inhibition: 12.8%

## O=C(c1csc([C@H]2CCCNC2)n1)N1CC[C@H](c2cccnc2)C1
Thailand/16681/1984, Concentration 49.5 uM, Number of replicates 2.0, Standard deviation 1.7251582592894925 %
  inhibition: -0.499%
Thailand/16681/1984, Concentration 99.01 uM, Number of replicates 2.0, Standard deviation 2.248532513594862 %
  inhibition: 1.01%
Thailand/16681/1984, Concentration 198.0 uM, Number of replicates 2.0, Standard deviation 1.6393165928155962 %
  inhibition: 2.41%

## CN1CCN(C2CCN(C(=O)C3CCN(c4ccc(C=O)cc4)CC3)CC2)CC1
[1]
  inhibition: 10.2%

## O=Cc1ccc(N2CCC(C(=O)NCCn3ncc4ccccc4c3=O)CC2)cc1
[1]
  inhibition: 15.1%

## CN(C)S(=O)(=O)[C@H]1C[C@H](NC(=O)c2cccc3c2NC(=O)[C@]2(CCCN2)C3)C1
Thailand/16681/1984, Concentration 49.5 uM, Number of replicates 2.0, Standard deviation 2.4228708872645983 %
  inhibition: -1.16%
Thailand/16681/1984, Concentration 99.01 uM, Number of replicates 2.0, Standard deviation 1.9959961416034686 %
  inhibition: -0.631%
Thailand/16681/1984, Concentration 198.0 uM, Number of replicates 2.0, Standard deviation 1.8190401536132663 %
  inhibition: -0.336%

## CC(C)(C)[C@@H](NC(=O)OCc1ccccc1)C(=O)Nc1cccc(CN)c1
Thailand/16681/1984, Concentration 49.5 uM, Number of replicates 2.0, Standard deviation 1.83793572376561 %
  inhibition: -6.76%
Thailand/16681/1984, Concentration 99.01 uM, Number of replicates 2.0, Standard deviation 1.8206757463634287 %
  inhibition: -7.66%
Thailand/16681/1984, Concentration 198.0 uM, Number of replicates 2.0, Standard deviation 1.2664180516369132 %
  inhibition: -8.05%

## COc1ccc(S(=O)(=O)N2CCC(C(=O)Nc3nccs3)CC2)cc1
Thailand/16681/1984, Concentration 49.5 uM, Number of replicates 2.0, Standard deviation 0.17896011278374374 %
  inhibition: -0.799%
Thailand/16681/1984, Concentration 99.01 uM, Number of replicates 2.0, Standard deviation 0.11050992187938288 %
  inhibition: -0.402%
Thailand/16681/1984, Concentration 198.0 uM, Number of replicates 2.0, Standard deviation 1.1191191361433108 %
  inhibition: -0.384%

## O=Cc1ccc(N2CCC(C(=O)NCc3ccc(-c4cccs4)cc3)CC2)cc1
[1]
  inhibition: 10.9%

## CNc1ccccc1C(=O)Nc1cccc2c(CO)cc(C)nc12
Thailand/16681/1984, Concentration 49.95 uM, Number of replicates 2.0, Standard deviation 1.7606224720878931 %
  inhibition: -0.213%
Thailand/16681/1984, Concentration 99.9 uM, Number of replicates 2.0, Standard deviation 1.1796035516056886 %
  inhibition: 2.15%

## CNS(=O)(=O)c1ccc(Oc2ccccc2Cl)cc1
Thailand/16681/1984, Concentration 49.5 uM, Number of replicates 2.0, Standard deviation 2.6119045762628477 %
  inhibition: -1.72%
Thailand/16681/1984, Concentration 99.01 uM, Number of replicates 2.0, Standard deviation 1.5233102161282106 %
  inhibition: -0.429%
Thailand/16681/1984, Concentration 198.0 uM, Number of replicates 2.0, Standard deviation 1.4243001461587221 %
  inhibition: 1.7%

## COc1cc(CCNC(=O)C2CCN(c3ccc(C=O)cc3)CC2)cc(OC)c1O
[1]
  inhibition: 15.1%

## Cc1cc(CO)c2cccc(NC(=O)c3nc(C4CCNCC4)oc3C)c2n1
Thailand/16681/1984, Concentration 49.95 uM, Number of replicates 2.0, Standard deviation 36.17788639576005 %
  inhibition: 67.7%
Thailand/16681/1984, Concentration 99.9 uM, Number of replicates 2.0, Standard deviation 0.36888000776056334 %
  inhibition: 98.7%

## O=Cc1ccc(N2CCC(C(=O)N3CCN(c4cnccn4)CC3)CC2)cc1
[1]
  inhibition: 10.1%

## O=S(=O)(c1ccc(Oc2ccccc2Cl)cc1)N1CCCCC1
Thailand/16681/1984, Concentration 49.5 uM, Number of replicates 2.0, Standard deviation 1.7286106762384137 %
  inhibition: 3.23%
Thailand/16681/1984, Concentration 99.01 uM, Number of replicates 2.0, Standard deviation 0.7664143091245312 %
  inhibition: 4.02%
Thailand/16681/1984, Concentration 198.0 uM, Number of replicates 2.0, Standard deviation 1.0381210487205594 %
  inhibition: 7.6%

## CN(CCCOc1ccc(Br)cc1)C(=O)C1CCN(c2ccc(C=O)cc2)CC1
[1]
  inhibition: -1.56%

## O=Cc1ccc(N2CCC(C(=O)Nc3c(F)c(F)cc(F)c3F)CC2)cc1
[1]
  inhibition: 13.9%

## Cc1cc(CO)c2cccc(CC(=O)NCCc3ncc[nH]3)c2n1
Thailand/16681/1984, Concentration 49.95 uM, Number of replicates 2.0, Standard deviation 0.7345959673097169 %
  inhibition: 39.1%
Thailand/16681/1984, Concentration 99.9 uM, Number of replicates 2.0, Standard deviation 0.015925439590932376 %
  inhibition: 77.7%

## CN(CCC(c1ccccc1)c1ccccc1)C(=O)C1CCN(c2ccc(C=O)cc2)CC1
[1]
  inhibition: 4.26%

## C[C@@H]1CCN(Cc2ccccc2)C[C@@H]1N(C)C(=O)C1CCN(c2ccc(C=O)cc2)CC1
[1]
  inhibition: 16.5%

## CCCCCN(CCCCC)C(=O)C1CCN(c2ccc(C=O)cc2)CC1
[1]
  inhibition: 14.5%

## c1ccc2[nH]c(CN3CC[C@H](c4c[nH]c5ccccc45)C3)cc2c1
Thailand/16681/1984, Concentration 49.5 uM, Number of replicates 2.0, Standard deviation 0.7608740215940771 %
  inhibition: 4.51%
Thailand/16681/1984, Concentration 99.01 uM, Number of replicates 2.0, Standard deviation 0.30587350380986955 %
  inhibition: 4.39%
Thailand/16681/1984, Concentration 198.0 uM, Number of replicates 2.0, Standard deviation 0.6449469231287406 %
  inhibition: 3.06%

## CC(C)Cn1cccc(C(=O)N[C@H]2CCCN(C)C2)c1=O
Thailand/16681/1984, Concentration 49.5 uM, Number of replicates 2.0, Standard deviation 0.6669640996160435 %
  inhibition: -2.84%
Thailand/16681/1984, Concentration 99.01 uM, Number of replicates 2.0, Standard deviation 0.010925306070993951 %
  inhibition: -2.69%
Thailand/16681/1984, Concentration 198.0 uM, Number of replicates 2.0, Standard deviation 0.5176514919942877 %
  inhibition: -0.838%
